# Out of some 1,200 compounds screened, about 160 (13%) were called active. The inconclusive results got no clear call from the source; some entries with a clear call stand among them for comparison. Calls come from the whole dose curve; as a rule, active = well fitted inhibition curve with a large enough effect; inconclusive = small, poorly fitted or top-dose-only effect; inactive = no such curve, though single readings can be large or run the other way. Potencies of inconclusive entries are doubtful fits and often do not repeat.
# Molecular target: Inositol hexakisphosphate kinase 1 (Homo sapiens) (UniProt Q92551)
# Sequence of UniProt Q92551 (Q92551 whole entry, looked up): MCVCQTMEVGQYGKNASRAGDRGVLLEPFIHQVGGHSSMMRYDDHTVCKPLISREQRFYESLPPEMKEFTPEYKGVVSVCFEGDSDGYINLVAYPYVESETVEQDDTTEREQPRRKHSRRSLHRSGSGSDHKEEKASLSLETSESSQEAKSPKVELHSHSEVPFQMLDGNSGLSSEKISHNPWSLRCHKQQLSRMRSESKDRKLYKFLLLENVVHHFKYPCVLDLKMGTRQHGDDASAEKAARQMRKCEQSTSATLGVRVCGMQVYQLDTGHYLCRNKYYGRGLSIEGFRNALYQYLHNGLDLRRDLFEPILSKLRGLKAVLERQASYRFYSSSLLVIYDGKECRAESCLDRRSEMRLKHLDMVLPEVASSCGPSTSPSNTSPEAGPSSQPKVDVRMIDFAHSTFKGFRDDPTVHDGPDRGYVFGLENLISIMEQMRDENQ
# Assay: Confirmatory qHTS assay for small molecule inhibitors of Inositol hexaphosphate kinase 1 (IP6K1); note: nearly all actives have a fitted effect of over 65% in size
# Conditions: recombinant IP6K1 kinase, ADP-Glo luminescence, 2 h; series mostly up to 49 µM; activity change, negative = inhibition: at the top concentration
# In short: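 Screening used the top two library doses against IP6K1 with ATP and IP6 substrates. ADP formation after a 2 hr room-temperature reaction was read by ADP-Glo Max luminescence.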
# % is set by controls: 0 for no effect and ±100 for the full control effect; potency is the fitted concentration of half-maximal effect; tags give direction and shape of the fitted curve.
SMILES,Potency,"activity change, negative = inhibition"
CCN(CC)C(=O)c1ccc(Nc2nc(OCC3CCCCC3)c3[nH]cnc3n2)cc1,active: 10.3 µM,
CC(=O)c1cccc(NC(=O)Nc2nnc(N3CCCC3)s2)c1,,inactive: -18.6%
Nc1ccc(N=Nc2ccccc2)c(N)n1,"inconclusive: 20.6 µM [inhibitor, partial curve]",
Cc1cc(CS(=O)(=O)c2ccccc2)cc(OCc2ccc(CN3CCC[C@@H]3CO)cc2)c1,,inactive: 9.34%
O=c1c2ccccc2n(Cc2cccc(Cl)c2)c(=O)n1Cc1ccccc1,,inactive: -4.11%
CCCCNC(=O)CN1CCN(c2ncc(NC(=O)c3ccc(Cl)cc3)cc2C(=O)O)CC1,"inconclusive: 6.51 µM [inhibitor, partial curve]",
Brc1ccc(CN2CCC(c3nc4ccncc4[nH]3)C2)cc1 (stereo unspecified),"inconclusive: 16.4 µM [inhibitor, partial curve]",
Cc1cc(C)c2oc(-c3ccc(C)c(NC(=O)/C=C/c4ccco4)c3)nc2c1,"inconclusive: 23.1 µM [inhibitor, partial curve]",
Cc1ccc(-c2cc3nccc(-c4cc([N+](=O)[O-])ccc4O)n3n2)cc1,"inconclusive: 20.6 µM [inhibitor, partial curve, poor fit]",
COc1ccc(-c2nc3ccncc3[nH]2)cc1,"inconclusive: 25.1 µM [inhibitor, partial curve]",
CC(C)CN(CCNC(=O)c1cn(C)c2ccc(S(=O)(=O)N3CCCC3)cc2c1=O)CC(C)C,,inactive: -7.56%
O=C(O)c1cccc(CN2C(=O)/C(=C(\c3ccccc3)c3ccc(Cl)cc3)c3ccccc32)c1,active: 20.6 µM,
O=S(=O)(NC1CCN(c2ccc3nnc(-c4ccccc4)n3n2)CC1)c1cccs1,"inconclusive: 8.2 µM [inhibitor, partial curve]",
O=c1cc(C2=CCOCC2)oc2c(-c3cccc4[nH]ccc34)nccc12,"inconclusive: 16.8 µM [inhibitor, partial curve, poor fit]",
COc1ccc(-c2nc(CCNC(=O)c3ccc(Br)o3)cs2)cc1,"inconclusive: 20.6 µM [inhibitor, partial curve]",
CN(C)CC(=O)N1Cc2ccccc2CC2(CCN(CC3CCNCC3)C2)C1 (stereo unspecified),"inconclusive: 18.4 µM [inhibitor, single point]",
Cn1nc(-c2ccc(C(F)(F)F)cc2)nc2c(=O)n(C)c(=O)nc1-2,"inconclusive: 1.84 µM [inhibitor, partial curve]",
COc1ccc(OC)c([C@@H]2Nc3ccc(C(=O)O)cc3[C@@H]3C=CC[C@@H]32)c1,"inconclusive: 20.6 µM [inhibitor, partial curve]",
O=C(NCc1ccco1)c1ccc2c(c1)N(Cc1ccccc1)C(=O)c1ccccc1S2,"inconclusive: 8.2 µM [inhibitor, partial curve, poor fit]",
NC(=O)c1cnc(N[C@@H]2CCCC[C@H]2N)nc1Nc1cccc(-n2nccn2)c1,"inconclusive: 20.6 µM [inhibitor, partial curve]",
O=Cc1ccc(-c2ccc(C(=O)O)cn2)cc1,,inactive: 5.54%

SMILES,Potency,"activity change, negative = inhibition"
O=C(Nc1cc(F)ccc1F)c1cc2nc(-c3ccco3)cc(C(F)(F)Cl)n2n1,,inactive: -16%
Cc1noc(-c2ccc(N3CCC(C)CC3)c([N+](=O)[O-])c2)n1,"inconclusive: 20.6 µM [inhibitor, partial curve]",
CN[C@H](CC(C)C)C(=O)N[C@H]1C(=O)N[C@@H](CC(N)=O)C(=O)N[C@H]2C(=O)N[C@H]3C(=O)N[C@H](C(=O)N[C@H](C(=O)O)c4cc(O)cc(O)c4-c4cc3ccc4O)[C@H](O[C@H]3C[C@](C)(N)[C@@H](O)[C@H](C)O3)c3ccc(c(Cl)c3)Oc3cc2cc(c3O[C@@H]2O[C@H](CO)[C@@H](O)[C@H](O)[C@H]2O[C@H]2C[C@](C)(NCc3ccc(-c4ccc(Cl)cc4)cc3)[C@@H](O)[C@H](C)O2)Oc2ccc(cc2Cl)[C@H]1O,"inconclusive: 7.69 µM [inhibitor, partial curve, poor fit]",
O=C(O)CC1(O)C(=O)Nc2ccccc21 (stereo unspecified),"inconclusive: 37.5 µM [inhibitor, partial curve, poor fit]",
COc1cc2ncnc(Nc3cccc(I)c3)c2cc1OC,active: 11.6 µM,
CCN1CCN(Cc2ccc(NC(=O)c3ccc(C)c(/C=C/c4cnc5[nH]ccc5c4OC)c3)cc2C(F)(F)F)CC1,active: 4.61 µM,
COc1cc(S(=O)(=O)N2CCc3c(nc[nH]c3=O)C2)c(OC)cc1C,,inactive: -4.42%
O=C1Nc2ccc(I)cc2/C1=C/c1cc(Br)c(O)c(Br)c1,active: 2.91 µM,
COc1ccccc1-c1cnc(Nc2ccc3c(c2)OCCO3)c2c1CCO2,,inactive: -17.4%
COc1cc(/C=C(\C#N)C(=O)c2ccc(O)c(O)c2)cc(I)c1O,active: 2.06 µM,
O=C(c1cc(Cl)ccc1F)N1CCN(C(=O)c2nnn3c2COC(c2ccccc2)C3)CC1 (stereo unspecified),,inactive: -8.58%
COc1ccccc1-c1nc2c(c(SCc3cc(C)ccc3C)n1)Cc1c(CO)cnc(C)c1O2,,inactive: -3.59%
Cc1ccc(-c2nc(S(=O)(=O)c3ccc(Cl)cc3)c(N3CCCCC3)o2)cc1,"inconclusive: 5.17 µM [inhibitor, partial curve]",
COc1ccc(NC(=O)Cc2csc(COc3cccc(C)c3)n2)cc1OC,,inactive: 33.7%
Cc1ccc(C(=O)Nc2nc3nc(C)cc(=O)n3[nH]2)cc1,,inactive: -18.2%
COc1cccc(CNc2ncc(-c3ccc(Br)cc3)n2C)c1,"inconclusive: 16.4 µM [inhibitor, partial curve, poor fit]",
CCN1C(C(=O)c2ccccc2)=C(OC(=O)COc2ccccc2)c2ccccc2S1(=O)=O,"inconclusive: 20.6 µM [inhibitor, partial curve, poor fit]",
Cc1ccc(NC(=O)c2cc(S(=O)(=O)N3CCCc4ccccc43)ccc2F)cc1F,,inactive: -9.29%
CCOC(=O)c1ccc(NC(=O)c2csc3c2CCCC3)cc1,"inconclusive: 29.1 µM [inhibitor, single point]",
Nc1cccc(-c2ccc(N3CCCCC3)nn2)c1,"inconclusive: 20.6 µM [inhibitor, partial curve]",

# — PubChem BioAssay AID1645852 (National Center for Advancing Translational Sciences (NCATS), 2021)
